The whole screen tested about 48,000 compounds, of which about 550 (1.1%) were called active. Not shown: some 4% with an inconclusive outcome. Cut-off read from the data, not from the text of the source: active = potency below about 15 µM; inconclusive = mostly about 16 µM to 33 µM; inactive = weaker than that. The list shows a part of the results.

Results on 56 molecules are retold here after PubChem BioAssay AID360 (National Center for Advancing Translational Sciences (NCATS), 2006).
Potency is the fitted concentration of half-maximal effect.

For this experiment, the target named is Lysosomal acid glucosylceramidase (Homo sapiens) (UniProt P04062). Nature of the experiment: Glucocerebrosidase.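 Note: the screen sought inhibitors.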 As to conditions: purified enzyme, resorufin glucoside fluorescence (screen aimed at inhibitors), 20 min; series mostly up to 77 µM. In a few lines: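 Normal human glucocerebrosidase (0.2 nM final) was assayed with resorufin β-D-glucopyranoside (30 uM final) in 50mM citric acid/KH2PO4, 10mM sodium taurocholate, 0.01% tween-20, pH 5.9. Compounds were titrated; fluorescence (Ex 548, Em 600) read after 20 min at RT.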
Chain of UniProt P04062 (P04062 whole entry, looked up): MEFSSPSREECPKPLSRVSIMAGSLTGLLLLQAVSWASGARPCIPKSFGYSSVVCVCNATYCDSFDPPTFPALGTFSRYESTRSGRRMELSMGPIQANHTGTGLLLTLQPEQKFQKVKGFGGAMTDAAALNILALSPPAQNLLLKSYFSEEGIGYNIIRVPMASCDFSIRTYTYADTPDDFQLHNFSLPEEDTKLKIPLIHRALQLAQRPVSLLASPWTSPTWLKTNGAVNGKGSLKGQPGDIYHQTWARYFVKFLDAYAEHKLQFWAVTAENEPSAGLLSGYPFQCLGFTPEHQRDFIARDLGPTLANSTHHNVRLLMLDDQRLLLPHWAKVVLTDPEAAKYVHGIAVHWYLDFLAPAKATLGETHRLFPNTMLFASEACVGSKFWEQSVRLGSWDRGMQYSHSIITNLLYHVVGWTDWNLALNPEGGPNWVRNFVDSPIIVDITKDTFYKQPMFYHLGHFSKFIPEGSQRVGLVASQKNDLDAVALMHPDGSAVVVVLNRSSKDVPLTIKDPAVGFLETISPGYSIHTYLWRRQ
For the molecule `CCOC(=O)c1[nH]c(=O)c2ccccc2c1O`, the Potency is inactive: > 76.9 µM. As for `O=C1CC(N2CCN(c3ccc(F)cc3)CC2)C(=O)N1Cc1cccs1` (stereo unspecified), the figure is inactive: > 76.9 µM; as for `CCc1ccc(NC2=NCC(=O)N2Cc2ccc3c(c2)OCO3)cc1`, “inactive”; as for `COC(=O)c1ccc(CSc2nc3c(cnn3-c3ccc(F)cc3)c(=O)[nH]2)o1`, inactive: > 76.9 µM. Regarding `CCC1CCCCN1CCCNC(=O)c1cn(CC(C)C)c(=O)c2cc(OC)c(OC)cc12` (stereo unspecified), the Potency is inactive: > 76.9 µM.

For `CCN1CCN(c2cc(C)c3cc(NC(=O)c4cncc(Br)c4)ccc3n2)CC1`, the Potency was active: 3.7 µM. As for `Cc1ccc(-n2nnc3c(=O)n(CC(=O)N4CCC(C)CC4)cnc32)cc1`, the figure is inactive: > 76.9 µM; as for `Cc1ccc(Nc2nc(N)nc(CN3CCN(C)CC3)n2)cc1`, inactive: > 76.9 µM; as for `CC(CN1CCOCC1)OC(=O)c1ccc2c(c1)OCCO2` (stereo unspecified), inactive: > 76.9 µM. The result for `Nc1ccnn1Cc1cccnc1` reads inactive: > 76.9 µM. As to `CCCCNC(=O)CSc1nc2cc3c(cc2c(=O)n1CCCN(CC)CC)OCO3`, the Potency was inactive: > 76.9 µM. As for `COc1ccc(C(C)=O)cc1CN1C(=O)C(C)N(c2ccc(C)cc2)C1=O` (stereo unspecified), the figure is inactive: > 76.9 µM; as for `CCOC(=O)N1CCN(C(=O)CSc2nc3c(c(=O)n2-c2ccccc2OC)SCC3)CC1`, inactive: > 76.9 µM; as for `Cn1c(=O)n(Cc2ccc(F)cc2)c(=O)c2c1nc1n2CCCN1C1CCCCC1`, inactive: > 76.9 µM. As for `CC(C)n1c(C(=O)OCC(=O)NCc2ccc3c(c2)OCO3)cc2occc21`, the figure is inactive: > 76.9 µM; as for `C=CCN1C(c2ccc(OCC)cc2)=CS/C1=C(\C#N)c1nnc2n1CCCCC2`, inactive: > 76.9 µM. As for `Cc1ccc(S(=O)(=O)N2CCCC2C(=O)Oc2ccccc2)cc1` (stereo unspecified), the figure is inactive: > 76.9 µM; as for `COc1ccccc1OCc1nnc(SCC(=O)c2cc(Cl)ccc2OC)o1`, inactive: > 76.9 µM. Turning to `Cc1cnc(C(=O)OCC(=O)Nc2ccc(Oc3ccccc3)cc2)cn1`, the Potency was inactive: > 76.9 µM. `CCOC(=O)C1=C(C)NC2=C(C(=O)CC(C)(C)C2)C1c1cccc(C)n1` (stereo unspecified): the Potency was inactive: > 76.9 µM.

In the case of `CC1CCCN(Cc2nc3c(c(=O)n(C)c(=O)n3C)n2CC(N)=O)C1` (stereo unspecified), the Potency was inactive: > 76.9 µM. As for `CCn1c(=O)n(CC)c2cc(S(=O)(=O)N3CCc4ccccc43)ccc21`, the figure is inactive: > 76.9 µM; as for `CC1(C)Cc2cccc(OCC(=O)N3CCN(S(=O)(=O)c4ccccc4)CC3)c2O1`, inactive: > 76.9 µM. As for `COc1cccc(NC(=O)CN2C(=O)C3(OCCCO3)c3ccccc32)c1`, the figure is inactive: > 76.9 µM; as for `COc1ccc(N(C)S(=O)(=O)c2cccc3cccnc23)c(OC)c1`, inactive: > 76.9 µM. Consider `O=c1c2cccnc2[nH]c(=S)n1CCCN1CCN(c2ccccc2F)CC1`, for which the Potency was inactive: > 76.9 µM. Consider `CC(NC(=O)c1ccccc1NC(=O)c1ccco1)c1ccccc1` (stereo unspecified), for which the Potency was inactive: > 76.9 µM. Take `O=C(Nc1cnn(C23CC4CC(CC(C4)C2)C3)c1)c1cnn2c(C(F)(F)F)cc(-c3ccco3)nc12`: the Potency is inactive: > 76.9 µM. As for `CC(=O)Nc1ccc(S(=O)(=O)Nc2c(C)n(C)n(-c3ccccc3)c2=O)cc1`, the figure is inactive: > 76.9 µM; as for `COc1ccccc1NC(=O)CN1C(=O)C2(OCCCO2)c2ccccc21`, inactive: > 76.9 µM.

As for `Cc1c(C(=O)N2CCCCCC2)oc2ccccc12`, the Potency is inactive: > 76.9 µM. As for `COc1cc2[nH]c(=O)n(CCCCCC(=O)N3CCN(c4ccccc4)CC3)c(=O)c2cc1OC`, the figure is inactive: > 76.9 µM. The result for `COc1ccc(C(N)=O)cc1NC(=O)CC(O)(C(F)(F)F)C(F)(F)F` reads inactive: > 76.9 µM. Turning to `Cc1onc(-c2c(F)cccc2Cl)c1C(=O)N1CCN(S(C)(=O)=O)CC1`, the Potency is inactive: > 76.9 µM. As for `CCOC(=O)c1[nH]c(C)c(C(=O)NCCC2=CCCCC2)c1C`, the figure is inactive: > 76.9 µM.

As for `CCOC(=O)C1(C)NC(c2ccc(OC)c(OC)c2)C2C(=O)N(CC)C(=O)C21` (stereo unspecified), the Potency is inactive: > 76.9 µM. On to `CC(=O)Nc1ccc(Cl)c(C(N)=O)c1`, for which the Potency is inactive: > 76.9 µM. The result for `COc1ccc(Cn2c(=O)sc3ccccc32)cc1OC` reads inactive: > 76.9 µM; that for `Cc1nc2ccc(F)cc2cc1C(=O)NCC1CCCO1` (stereo unspecified), inactive: > 76.9 µM; that for `CCC1Oc2ccc(C)cc2N(CC(=O)NCc2ccccc2OC)C1=O` (stereo unspecified), inactive: > 76.9 µM.

For `O=S(=O)(c1ccc(Cl)cc1)N1CCN(c2ccc(N3CCOCC3)nn2)CC1`, the Potency is inactive: > 76.9 µM. As for `Cn1c(C(=O)OC(C(=O)NC2CCCC2)c2cccnc2)cc2sccc21` (stereo unspecified), the figure is inactive: > 76.9 µM; as for `CSc1nsc(SCC(=O)N2CCCc3ccccc32)n1`, inactive: > 76.9 µM; as for `CN1C(=O)SC(Nc2ccc(F)cc2)C1=O` (stereo unspecified), inactive: > 76.9 µM.

Consider `CCOC(=O)CSc1nc2ccccc2c(=O)n1CCN1CCOCC1`, for which the Potency was inactive: > 76.9 µM. As for `Cc1occc1C(=O)Nc1ccc(S(=O)(=O)N2CCCC2)cc1`, the figure is inactive: > 76.9 µM. As for `CC1CCCCN1CCNS(=O)(=O)c1ccc2c(c1)oc(=O)n2C` (stereo unspecified), the figure is inactive: > 76.9 µM; as for `COC(=O)c1cc(=O)n(Cc2cccs2)c(=NCc2cccs2)s1`, inactive: > 76.9 µM. The result for `O=C1C(SC(F)(F)C(F)F)=C(C(F)(F)F)OC2C3C=CC(C3)C12` (stereo unspecified) reads inactive: > 76.9 µM; that for `N#CCSc1nnc(-c2cccnc2)n1-c1ccccc1`, inactive: > 76.9 µM; that for `Cc1nn(Cc2ccccc2Cl)c(C)c1C(=O)NC1=NCCS1`, inactive: > 76.9 µM. In the case of `Cc1cc(C)c(C(=O)CSc2n[nH]c(=O)n2C2CC2)cc1C`, the Potency is inactive: > 76.9 µM. The result for `CCNc1nc(Oc2ccc(C(=O)OC)cc2)nc(SC)n1` reads inactive: > 76.9 µM; that for `CCOC(=O)c1cnc(-n2nc(C)cc2C)nc1Nc1ccc2c(c1)OCO2`, inactive: > 76.9 µM. The result for `COc1ccc(O)c(-c2c(-c3ccc(Cl)cc3)n[nH]c2C)c1` reads inactive: > 76.9 µM; that for `COc1ccc(N2C(=O)c3cccc4cccc(c34)C2=O)nn1`, inactive: > 76.9 µM.
